Target: T1, Human CD47 (coated on ELISA plates) (human, UniProt Q08722 partial chain, limits assumed)
T1 construct: construct not described; also called immobilized CD47
Assay: ELISA on plate-coated human CD47, detection with HRP goat anti-human IgG Fcγ, A450

B1: Fc-(G4S)4-anti-CD47(VHCH1) (Fc fusion)
chain: [human IgG1 Fc with changes not shown]GGGGSGGGGSGGGGSGGGGSG[about 200 residues not shown]
light: DIVMTQSPATLSVTPGDRVSLSCRASQTISDYLHWYQQKSHESPRLLIKFASQSISGIPSRFSGSGSGSDFTLSINSVEPEDVGVYYCQNGHGFPRTFGGGTKLEIKRTVAAPSVFIFPPSDEQLKSGTASVVCLLNNFYPREAKVQWKVDNALQSGNSQESVTEQDSKDSTYSLSSTLTLSKADYEKHKVYACEVTHQGLSSPVTKSFNRGEC
notes: Fc-Fab precursor, 'full tetrameric molecule'
EC50 (read off the curve): ~1 nM

— US20160009824A1 (Merck KGaA, published 2016)
